The RNAGym collection of RNA variant scans (doi:10.7554/elife.90254)
Read counts are not given, so values of variants with three or more changes are uncertain.

B1: LINE1-mini (parent)
chain: GGCAGAGCUCAACACAGCGUGGCAAAGUGGCUGUGGCUAGACUGCC

Variants of: B1
Test: self-cleavage, relative activity (ratio to wild type); higher = more cleavage; in vitro, sequencing; the parent is a self-cleaving ribozyme

Row | Variant | self-cleavage
1 | GGCAGAGCUCACCACAGCGUGGCAAAGUGGUUGUGGCUAGACUACC [A12C C31U G44A] | 0.01
2 | GGCAGAGCUCACCACAGCAUGGCCAAGUGGCUGAGGCUAGACUGCC [A12C G19A A24C U34A] | 0.01
3 | GGCAGAGCUCACCACAGCGUGUCAAAGUUGCUGUGGCUAGACUGCC [A12C G22U G29U] | 0.06
4 | GGCAGAGCUCACCACAGCGUGGAAAAUUGGCUUUGGCUAGACUGCC [A12C C23A G27U G33U] | 0.02
5 | GGCAGAGCUCACCACAGCUGGGGAAAGUGGCUGUGACUAGACUGCC [A12C G19U U20G C23G G36A] | 0.02
6 | GGCAGAGCUCACCACAGCGUGGGAAAGUGAAUGUGGCUAGACUGCU [A12C C23G G30A C31A C46U] | 0
7 | GGCAGAGCUCACAACAGCGUGGCAAAGUGGCUGUGGCUAGGCUGCC [A12C C13A A41G] | 0.04
8 | GGCAGAGCUCACCACAGCAUGGCAAAGUUGCUGUGGCUAGACUGCC [A12C G19A G29U] | 0.02
9 | GGCAGAGCUCACCACAGCGUGGCCAAGUGGCUGUGGAUAGACUGCC [A12C A24C C37A] | 0.02
10 | GGCAGAGCUCACCACAGCCUAGCAAAGUGCCUGUGGCUAGACUGCC [A12C G19C G21A G30C] | 0.01
11 | GGCAGAGCUCACCACAGCGUGACAAAGUGGCUGUGGCUAUACUGCC [A12C G22A G40U] | 0.02
12 | GGCAGAGCUCACCACACCGUGGCAAAGAGGCUGUGGCUAGUUUGCA [A12C G17C U28A A41U C42U C46A] | 0
13 | GGCAGAGCUCACCACAGGGUGGCAAAGUGGUUGUGGCUUGACUGCC [A12C C18G C31U A39U] | 0.02
14 | GGCAGAGCUCACCACAGCGUAGCAAAGGGGCUGUGGUUAGACUGCC [A12C G21A U28G C37U] | 0.01
15 | GGCAGAGCUCACCACAGAGUGGCAAAUUGGCUGUGUCUAGACUGCC [A12C C18A G27U G36U] | 0.03
16 | GGCAGAGCUCACCACAGCGUGGCAAAGUGGCUGUGGCUUUACUGCC [A12C A39U G40U] | 0.01
17 | GGCAGAGCUCACCACAACUUGGCAAAGUGGCUUUGGCUAGACAGCC [A12C G17A G19U G33U U43A] | 0.01
18 | GGCAGAGCUCACCACAGCGUGGCAAUGUGGCUGUGCCUAGACCGCC [A12C A26U G36C U43C] | 0
19 | GGCAGAGCUCACCACAGGGUGGCAAAGUGGCUGGGGCUAGACUGCC [A12C C18G U34G] | 0

Row | Variant | self-cleavage
20 | GGCAGAGCUCACCACAGCGUGGCAAACUGACUGUGGCUAGACUGCC [A12C G27C G30A] | 0.01
21 | GGCAGAGCUCACCACAGCCUGGCAAAGUGGCUGUUGUUUGACUGCC [A12C G19C G35U C37U A39U] | 0
22 | GGCAGAGCUCACCACAGCGUGGGGAAGUGGCUGUGGCUAGACUGUC [A12C C23G A24G C45U] | 0.01
23 | GGCAGAGCUCACCACAGCGUGGGAAAGGGGCUGUGGCUAGACUUCC [A12C C23G U28G G44U] | 0.01
24 | GGCAGAGCUCACCACAGCGUGUAAAAGUGGCUGUGGCUAGACGGCC [A12C G22U C23A U43G] | 0.01
25 | GGCAGAGCUCACCACAUCGUGGCAACGUGGCUGUGGCUAGAGUGCU [A12C G17U A26C C42G C46U] | 0
26 | GGCAGAGCUCACCAGAGCGUGGCAAAUUGGCUGUGGCUAGACAACC [A12C C15G G27U U43A G44A] | 0.04
27 | GGCAGAGCUCACCACAGCGUUGCAGAGUGGCUGUGGCUACACUGCC [A12C G21U A25G G40C] | 0.01
28 | GGCAGAGCUCACGACAGGGUGGCCAAGUGGCUGUGGCUAGGCUGCC [A12C C13G C18G A24C A41G] | 0.02
29 | GGCAGAGCUCACCACAGCGUGGGAAAGUAGCUGUGGCCAGACUGCC [A12C C23G G29A U38C] | 0.02
30 | GGCAGAGCUCACCAGAGCGUGGCAAAGUGGCUCUGGCGAGACUGCC [A12C C15G G33C U38G] | 0
31 | GGCAGAGCUCACCACUGCGUGGCAAAGUAGCUGUGGCUAGACCGCC [A12C A16U G29A U43C] | 0.01
32 | GGCAGAGCUCACCACAGUGUGGCAAAGUGGCUAUGGCUAGACUGCC [A12C C18U G33A] | 0.01
33 | GGCAGAGCUCACCACAGCGUGGCAAAGUGGCUGUGGUUAUACUGCC [A12C C37U G40U] | 0
34 | GGCAGAGCUCACCACAGCGUGACAAAGUGGCUGAGUCUAGACUGCC [A12C G22A U34A G36U] | 0.02
35 | GGCAGAGCUCACCACAUCGUGGCAAAGUGGCUGUGUCUAGACUGCC [A12C G17U G36U] | 0
36 | GGCAGAGCUCACCAGAGCGUGGCAAAGUGGCUGUGGCAAGACUGCC [A12C C15G U38A] | 0.03
37 | GGCAGAGCUCACCACAGCGUGGCAACGUGGCUGGGGCUAGACUGCC [A12C A26C U34G] | 0.01
38 | GGCAGAGCUCACUACAGCGUGGCAAAGUUGCCGUGGCUAGACUCCC [A12C C13U G29U U32C G44C] | 0.04

Row | Variant | self-cleavage
39 | GGCAGAGCUCACAACAGCGUGGCAAAGUGGCUGUGGCUAGACUUCC [A12C C13A G44U] | 0.04
40 | GGCAGAGCUCACCACAGCGUGGCAAAGUAGCUGUGGCUAGACUGCU [A12C G29A C46U] | 0.01
41 | GGCAGAGCUCACCACAACAUGGCCAAGUGGCUGUGGAUAGACUGCC [A12C G17A G19A A24C C37A] | 0
42 | GGCAGAGCUCACUACAGCGUGGGAAAGUGGCUGUGACUAGACUGCC [A12C C13U C23G G36A] | 0.02
43 | GGCAGAGCUCACCACAACGUGGCAAAGUGGCUGUGGCUAGACUGAC [A12C G17A C45A] | 0.04
44 | GGCAGAGCUCACCACAGCAUGGGAAAGUGGCUGGGGCUAGGCUGCC [A12C G19A C23G U34G A41G] | 0.03
45 | GGCAGAGCUCACCAAAGCGUGGCAAAUUGGCUGUGACUAAACUUUC [A12C C15A G27U G36A G40A G44U C45U] | 0.01
46 | GGCAGAGCUCACCAUAGCGUGGCAAUGUGGCUGUGGCUAGACUGCC [A12C C15U A26U] | 0.13
47 | GGCAGAGCUCACCACAGCGUGGCACAGUGGCUGUGGCUGGACUGAC [A12C A25C A39G C45A] | 0.02
48 | GGCAGAGCUCACCACAGCGUUUCAAAGUGGCUGUGGCUAGACUGCC [A12C G21U G22U] | 0.02
49 | GGCAGAGCUCACCAUUGCCUGGCAAAGUGGCUGUCGUUAGACUGCC [A12C C15U A16U G19C G35C C37U] | 0.04
50 | GGCAGAGCUCACCACAGCGUGGCAAGUUGGCUGUGGCUAGACUGCC [A12C A26G G27U] | 0
51 | GGCAGAGCUCACUACAGCGUGGCAAAGUGGCUAUGGCUAUACUGCC [A12C C13U G33A G40U] | 0
52 | GGCAGAGCUCACCACAGCGUGGCAAUGAGGCUGUGGCUAGACUGCU [A12C A26U U28A C46U] | 0.01
53 | GGCAGAGCUCACCACAGCCUGGCAAAUUGGCUGUGGCUUGACUGCU [A12C G19C G27U A39U C46U] | 0
54 | GGCAGAGCUCACCACAGCGUUGCAAAGUGGCUGUAGCUAGACUGCC [A12C G21U G35A] | 0.02
55 | GGCAGAGCUCACCACAGCGUGGCAUAGGGGCUGUGGCUAGACUGCC [A12C A25U U28G] | 0.02
56 | GGCAGAGCUCACCAAAGCGUGGCAUAGUGGCUGUGGCGUGACUGCC [A12C C15A A25U U38G A39U] | 0.01
